Assay results reported in the supplement of paper PMC5499739.
In all, about 16,000 sequences were measured (“Z-score”: median about -0.37, highest 2% from about 3.1 on). The list shows a part of the results.

These sequences were tested on RBM10 RRM1-ZnF-RRM2 (GST-tagged construct) (assay: RNAcompete 7-mer binding Z-score; higher = stronger binding preference).
Method: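 RNAcompete: 20 pmol GST-tagged RBM10 RNA-binding constructs were incubated with a designed RNA pool of about 241,000 sequences up to 41 nt (1.5 nmol) on glutathione beads for 30 min at 4 °C and washed. Bound RNAs were identified by microarray hybridisation. Each RNA 7-mer is scored by a one-sided Z-score of its enrichment, computed over probes that contain the 7-mer within longer pool sequences.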

Sequence	RNAcompete 7-mer binding Z-score
GCACUAU	-0.504
AAGGACA	3.12
AUCUUGA	-0.785
UGCUACU	-0.69
GCCUUGC	-0.788
UCGGCGC	0.024
UGACACG	0.0859
AUAGCGG	1.03
GAUGAAG	2.32
UUAAUAG	-0.53
AUUCCUA	-0.81
CUCUGCA	-0.832
UGGUCGA	0.65
CGAGCUU	-0.723
GACGCUU	-0.992
UCGGAAA	0.392
GUAAUCU	-0.457
UGGACUG	0.84
GAAAGAG	1.42
UACGGCA	0.348
AGCUCAU	-0.897
UUUCAUC	-0.664
AGCUUCU	-0.908

Sequence	RNAcompete 7-mer binding Z-score
AAAGCUU	-0.504
AGUCUGU	-0.482
GAGGCUA	0.192
UUGGGGU	2.84
AUGGGCU	1.51
UUUUUAC	-0.766
CGGAUCG	0.53
UCUCCCA	-0.697
UCGACUG	-0.581
GUAUGGA	2.44
AUGGGAU	3.25
GCGGUAA	1.01
CUGCUGC	-0.639
GAAAAAC	0.0677
ACGGGAU	1.88
ACCAACA	-0.358
CACUUCC	-0.868
UCGUGCG	-0.027
UGGUCUU	-0.632
GGCUUAC	-0.548
GUGGCGC	1.46
GAGGCUG	0.727
UUAAAUC	-0.65

Sequence	RNAcompete 7-mer binding Z-score
AGAAACU	-0.592
ACUCAGG	0.0349
GCAACUC	-0.697
AAGUAAC	0.0932
UGCCCCC	-0.464
GCAACGA	0.0677
AGGCAAU	0.701
AAGGAUA	2.92
CUAGGGU	2
CCCGACC	-0.952
UCGAUGC	-0.38
UUCUUCG	-0.708
GCAUGUG	0.734
CUAUUAA	-0.828
GCUGUAC	-0.453
CGCAGAU	-0.5
AUCGGAC	-0.107
CUCAAAU	-0.832
CAUAGUU	-0.577
AAAAGUG	0.833
AACUCUG	-0.828
GCGACGA	0.101
AUAACAA	-0.176

Sequence	RNAcompete 7-mer binding Z-score
UAUUGUG	-0.169
CGUUUUU	-0.781
GGCCCGA	-0.537
AUACUAA	-0.471
CAGGUGU	1.13
GGGAGCC	0.891
AACUGUU	-0.646
GGUGCGA	1.58
AUAUCGC	-0.573
UGGCGAG	1.73
GCUAAAA	-0.0634
AUGUUGG	0.913
UAUAUGU	-0.358
ACGCGCA	-0.446
CGCCGGC	-0.668
AGAAACA	-0.107
GCAAUCG	-0.125
GGGCUUG	1.02
UGCUUAG	-0.22
CUUUCAC	-0.868
ACUAAGG	1.05
UUACUCU	-0.766
UUUUCGU	-0.792

Sequence	RNAcompete 7-mer binding Z-score
CCAUACU	-0.854
UGCUGUG	-0.333
ACGUUCG	-0.584
AUACAUU	-0.602
AGUGAUG	0.8
AAUUAUG	-0.158
GGGUUCG	1.77
AAGGCGC	0.982
CCACAGG	0.0932
GUUAAGA	0.37
UGCUGGA	0.217
GCUAAAU	-0.337
GUGCCCU	-0.621
ACGCACG	-0.522
UUUCGCG	-0.719
AGCGUUC	-0.562
CUCAACC	-0.734
CUGAGAG	-0.0525
CGGCACG	0.308
AUAUCUC	-0.792
CUCCCGA	-0.857
CACUAAG	-0.267
CCACAAA	-0.606

Sequence	RNAcompete 7-mer binding Z-score
AUGGAAG	3.16
GCACAAU	-0.246
UUGUUCA	-0.628
GAAGCGG	2.32
CGACCAA	-0.475
AUCAAAC	-0.424
CUCGACC	-0.868
AGCCGCU	-0.854
GAUUGUC	-0.606
CUCUCCU	-0.697
GGCCGAU	-0.0998
GAGUUCA	-0.315
CGAAAGA	-0.0634
GAGUCAG	0.705
GGUAGGC	2.65
AGAUGCU	-0.777
AUAGACC	-0.475
ACAGCGG	1.21
UCAUUGG	-0.0525
UGCGAUC	-0.657
UGAUUCU	-0.704
GGGAGAG	2.53
CGCUCGC	-0.661

Sequence	RNAcompete 7-mer binding Z-score
ACGGUAG	1.21
UCGACGC	-0.635
GGCCCCC	-0.286
UCCAGUC	-0.715
CCUUAUG	-0.854
AGCUAAG	-0.165
ACGCUUU	-0.865
ACCGGUC	-0.588
UCUACAU	-0.675
GACGGGG	2.79
GUAACAC	-0.0525
CCCGACA	-0.69
GGACACU	0.0422
CGGGAAA	2.26
ACGGAAC	0.785
AUAAGCC	-0.777
CUUGUCG	-0.737
GGGCCGG	1.34
CAGCGGU	0.406
UGGUGCU	0.694
AUCACCU	-0.876
AGCAUGG	1.8
GUCCACC	-0.726

Sequence	RNAcompete 7-mer binding Z-score
GUUCUAC	-0.759
ACACCAU	-0.555
UAAGCGC	-0.508
CGGUGAA	0.723
GUAGCUG	0.25
AACAUCA	-0.562
AAUAACA	-0.264
AUAACGG	0.891
CUCCUGC	-0.774
CGCCGAG	-0.573
AUCCUCG	-0.832
GCAACCU	-0.643
GUUGCCA	-0.446
UCGCUCC	-0.664
GCCCUAC	-0.704
CCACAGU	-0.413
UGUCGCG	-0.446
CUGUGGC	-0.129
UCCCCAG	-0.315
UCGUACG	-0.122
GAUACUC	-0.701
CCCCACA	-0.65
CUGACAU	-0.537
